This note sets out measurements from the supplement of paper PMC10126150.

Sequences with one replicate were seen in a single cluster, so their values are uncertain.
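Also: ATP exposure 15 min at 22 °C before imaging.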

The test system of the data set is ATP. In words: switch fluorescence ratio, 500 uM ATP over buffer (Cy3 cluster intensity, sum of 5 cycles each) (fold (ratio)); higher = stronger signal-on switching upon ATP binding; sequences stand for … in TCGTCGGCAGCGTCAGATGTGTATAAGAGACAGTTTTTTTTTTTTTTTTTTTTTTTTT…TC. The settings on record: aptamer strand: ATP DNA aptamer (quencher-CACCTGGGGGAGTATTGCGGAGGAAGG + anchor), 100 nM annealed; ATP concentration: 500 uM; one replicate. Summed up:
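Between each of five buffer/ATP cycles, the flow-cell was stripped with NaOH and re-annealed. Each cycle imaged Cy3-labelled switching-strand clusters, annealed to 100 nM quencher-labelled ATP aptamer on a modified Illumina MiSeq flow-cell, first in selection buffer and then after 15 min with 500 uM ATP at 22 °C. The fluorescence ratio is summed target-cycle over summed buffer-cycle Cy3 intensity per cluster, averaged per switch-domain sequence, with clusters outside 100-1000 RFU excluded.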
On to GAGCACTCAA, for which the switch fluorescence ratio was determined as 0.997. The figure for GTTCGTGGGG is 1.03; for TCGTTGTGAA it is 1.04; for CTTGACTGGT it is 0.984. The figure for AAATTTAGAG is 1.01; for TGACGGGCGT it is 0.984; for TGCATTAAGA it is 1.02. To GTATGAGCTA belongs 1.06. As for GGGCCTCTGA, the switch fluorescence ratio came out at 1.03.

On to GCCGACTTTG, for which the switch fluorescence ratio was found to be 0.986.

AAAGTCCCCT: the switch fluorescence ratio worked out at 1.17. The figure for GGAGGAACTT is 1.04; for TCATACAGGC it is 0.986; for AAACGTGGTA it is 0.997. To TGTGAACTTA belongs 0.991; to CTGAAGGTGA, 1.18. To CCAGGCGCG belongs 0.995; to AAAGACTTAA, 0.995; to CAGGACCCAC, 1.41. Regarding CATGGGTAAA, the switch fluorescence ratio came to 0.997.

CAGTGCAGCT: the switch fluorescence ratio was 1.02. To GACACCGTGG belongs 0.987; to TCCGGTGCCT, 1.18; to CATCAGACTA, 0.965. The figure for TCACGGCGGA is 0.984. Regarding ATCCGTCACG, the switch fluorescence ratio was found to be 1.06. For the sequence GTTTCTTTTC, the switch fluorescence ratio came out at 1.03. The figure for TAAGGCAAGC is 1.16; for TTGGACTGCG it is 0.902. To GGGTGGTGTC belongs 1.08. To ATTGTCGGGT belongs 1.12; to CGTGGAGGTC, 1.02; to ATAGTGATCT, 1. As to GGACGCACGC, the switch fluorescence ratio amounted to 2.71. The figure for CCACAAATAA is 1.05; for TGACACCTGT it is 1.02; for AGGGGGTATA it is 0.973. The figure for GAATCAGCCT is 1.14. Turning to GCTGGGTCAG, the switch fluorescence ratio was 0.989.

Turning to TACGTGAGAG, the switch fluorescence ratio amounted to 1.07.

With GGTGGCTTAC, the switch fluorescence ratio stood at 1.12. The figure for CTGGTAGCAC is 1.75. To GAAGGAACGC belongs 1.09; to GAGTTGGAGG, 0.971. To TCCGCCAATT belongs 5.98; to TAAGTTTCGT, 1. For GCTAGGAGTG, the switch fluorescence ratio stood at 0.965. On to ACCGGCAAGC, for which the switch fluorescence ratio amounted to 2.12. Consider GGAAGCAGTG, for which the switch fluorescence ratio worked out at 1.09. The figure for AACGGCCACA is 1.1. The figure for TATGTCATGG is 1.03; for GGCGGCGAGC it is 1.02; for GAAGCAGCTG it is 1.04. The figure for TCCATGCGGA is 0.996; for GGTATATAGA it is 0.977. With CGTAGGTGGA, the switch fluorescence ratio stood at 0.999. The figure for TAGATTCGGG is 1.02; for GATGTAGCCT it is 1.05.

Consider TCACGAGATC, for which the switch fluorescence ratio was 0.995. The figure for ACCTGCCTTG is 1.12; for GGATGCATGT it is 0.967; for GCCGCGCCCT it is 1. TGTCTGAGTG: the switch fluorescence ratio amounted to 0.965. The figure for TTGTCATGTA is 0.998; for TGATTACATT it is 1.02. The figure for CTTGTTTAGG is 0.999; for TTAGACCAGG it is 1.09; for GGGTCATGCA it is 1.02. To TTTTTCGAAA belongs 1.04.

Take TCGTCGAGTT: the switch fluorescence ratio came out at 0.989. The figure for TGAACACACT is 1.19; for GGTAATTGTA it is 0.957; for TAGCGATAGC it is 0.981. To CCTGGCAGGG belongs 1.01; to TTATGCGGT, 1.01; to ATATTTGGC, 0.897. For the sequence ACGGGCAGTA, the switch fluorescence ratio came to 1.04. The figure for CTTTTTAGCC is 1.09; for ATATAAGTAC it is 1.41; for TCATACCTGA it is 1.01. The figure for TAGCCTGGGT is 0.999; for TACAGGGGTG it is 1.1; for AACGGCCGGT it is 1.02. To ACATCGGAGT belongs 0.997; to ATAAGGACG, 1.01; to GTGAGGGCTA, 1.02. CTAGAGAATA: the switch fluorescence ratio is 0.985. To TGGCCGATTC belongs 1.07; to TACTCAACGC, 1.23. To TATGCGCAAG belongs 1.04; to GGCCTTCTCG, 1.34; to CAAGCGAAGA, 1.02.

ACCTTGGTG: the switch fluorescence ratio was determined as 1.19. The figure for CAAGCACGTG is 1.03. For the sequence CATGCCGCGA, the switch fluorescence ratio is 2.17. Take GTAGGCCGGC: the switch fluorescence ratio is 1.11. As for AATTATCAAA, the switch fluorescence ratio turned out to be 0.981.

Take GACTCTCAAC: the switch fluorescence ratio came out at 1.06.

As for GACAGGTCAT, the switch fluorescence ratio is 1.02.

Regarding GCGCCCAGCT, the switch fluorescence ratio was found to be 0.97. The figure for GAGCTAACA is 0.996; for TTGCGGCGTT it is 0.989. As to CCGGCGTTTT, the switch fluorescence ratio was 1.08. Consider CTATAACCTG, for which the switch fluorescence ratio was 1.18. To AGTTGGGA belongs 0.992; to CCAGGGACGT, 0.977. To GGTTCGACCC belongs 1.09. The figure for AAGCGCCAAC is 1.1.

Turning to CACAAACCTT, the switch fluorescence ratio is 2.22.

For CCTTTAGACA, the switch fluorescence ratio came out at 1.02. The figure for GTAGCGGGCG is 0.963.

Turning to TTTGGCAAGC, the switch fluorescence ratio is 2.08. To TATCTAAACA belongs 1.13; to AAGCTCAGCA, 1.04; to TAATGCGGCG, 0.984.

As for TATCTTGGTG, the switch fluorescence ratio turned out to be 1.02.

As to GAGCAACTGG, the switch fluorescence ratio amounted to 1.06.

As for TAGTTGCAAC, the switch fluorescence ratio is 0.99. As for ACGCCAAACA, the switch fluorescence ratio turned out to be 1.15.

Consider GGGTGACAAA, for which the switch fluorescence ratio was found to be 1.02.
